Source: PubChem BioAssay AID485344 (National Center for Advancing Translational Sciences (NCATS), 2010)
Where “and” joins values, the source holds several entries; their conditions need not be identical. Identical values can stand only once. About 6,900 (2%) of roughly 340,000 compounds were called active. Rule as the data show it: active = inhibition above about 30%; inactive = below that, where a call was filed. The list shows a part of the results, in another mix than the full data. Entries without a call were filed so in the source.

Target: D(2) dopamine receptor (Homo sapiens) (UniProt P14416)
UniProt P14416, sequence (P14416 whole entry, looked up): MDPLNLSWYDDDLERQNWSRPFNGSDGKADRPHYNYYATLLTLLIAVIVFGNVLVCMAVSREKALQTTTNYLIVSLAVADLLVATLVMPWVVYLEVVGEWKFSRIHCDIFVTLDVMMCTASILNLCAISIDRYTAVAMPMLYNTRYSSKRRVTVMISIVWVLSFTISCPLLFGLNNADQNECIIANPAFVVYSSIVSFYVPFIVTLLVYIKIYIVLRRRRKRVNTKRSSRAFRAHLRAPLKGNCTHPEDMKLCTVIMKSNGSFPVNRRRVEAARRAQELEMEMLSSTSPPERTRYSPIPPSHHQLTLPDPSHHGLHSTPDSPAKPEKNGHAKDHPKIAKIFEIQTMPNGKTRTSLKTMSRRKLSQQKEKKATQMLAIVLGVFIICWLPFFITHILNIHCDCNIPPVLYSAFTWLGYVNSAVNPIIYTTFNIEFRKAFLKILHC
Experiment: HTS Assay for Allosteric Antagonists of the Human D2 Dopamine Receptor: Primary Screen for Antagonists; also: 0% is about no effect
Details: HEK293 TREx D2 cells, calcium flux, dopamine EC80; at 10 µM; stronger effect = higher value
How it was run: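 Measurement of antagonist activity uses fluorescent calcium dye in inducible HEK293 T-REx D2 cells: 10 s baseline, compound addition with 180 s read, EC80 dopamine addition with a further 180 s read.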

| Compound | inhibition |
| --- | --- |
| Cc1cccc(C(=O)OCc2cc(=O)n3ccsc3n2)c1 | -10.6% |
| COc1ccc(Cn2ccc3nc(C)c(C(=O)Nc4ccc(OC)cc4)cc3c2=O)cc1 | 2.8% |
| COc1ccc(CNC(=O)C2CCN(S(=O)(=O)c3c(C)noc3/C=C/c3ccccc3F)CC2)cc1 | -0.531% |
| COC(=O)Nc1ncc(CN2CCC(c3ccccc3)CC2)s1 | active: 98.1% |
| Cc1cc(C)c(NC(=O)Cn2c(=O)c3cccn3c3ccccc32)c(C)c1 | 7.83% |
| COc1cccc(-n2ccnc2SCC(=O)Nc2c(C)cc(C)cc2C)c1 | 8.87% |
| CCSc1ncc(Cl)c(C(=O)N2CCN(c3ccccc3OC)CC2)n1 | 13.5% |
| Cc1cccc(OCC(=O)Nc2cccc(OCc3cc(=O)n4cccc(C)c4n3)c2)c1 | 5.83% |
| O=C(/C=C/c1ccccc1)Nc1cc(-c2nc3cc(Cl)ccc3o2)ccc1Cl | -6.42% |
| Cc1cc2nc(-c3cccc(NC(=O)c4cccc5ccccc45)c3)oc2cc1C | 3.35% |
| CCOc1ccc(N2CC(NC(=O)c3ccco3)CC2=O)cc1 (centres undefined) | 16.1% |
| CC1CCCN(C(=O)c2cc3ccc4cccnc4c3[nH]2)C1 (centres undefined) | 1.59% |
| CCc1nc2ccc(C(=O)NCCc3ccccc3OC)cc2nc1CC | 13.7% |
| CCCCN1CC(c2nc3ccccc3n2CCCCOc2cc(C)ccc2C)CC1=O (centres undefined) | 0.694% |
| O=C(CS(=O)(=O)c1cccc2nsnc12)Nc1ccccc1Cl | 13.9% |
| CC1CCN(CCc2nc3cc(NS(=O)(=O)c4ccc(F)cc4)ccc3n2C)CC1 | active: 35.6% |
| COc1ccc(N(Cc2cc3ccccc3[nH]c2=O)C(=O)c2cccc(Cl)c2)cc1 | 1.93% |
| CCOC(=O)Cc1ccc(NC(=O)NCc2c(-n3cccc3)sc3c2CCCC3)cc1 | 10.9% |
| Cc1ccc(NC(=O)c2c(C)cc(C)nc2SCC(=O)Nc2ccc(Br)cc2)cc1 | -3.06% |
| COc1ccc(/C=C/C(=O)Nc2cc(C(F)(F)F)ccc2Cl)cc1 | active: 32% |
| COc1cc(C(=O)NCC(c2ccc3c(c2)OCO3)N2CCOCC2)cc(OC)c1OC (centres undefined) | -3.78% |
| CCCC(O)c1nc2ccccc2n1CCCOc1ccc(Cl)cc1 (centres undefined) | -7.62% |
| CCc1cccc(NC(=O)C2CCCN(c3ncnc4onc(-c5ccc(F)cc5)c34)C2)c1 (centres undefined) | 10.7% |
| CCN1CCSc2ccc(C(=O)NCc3ccc(OC(C)C)cc3)cc21 | 18.1% and active: 59.7% |

| Compound | inhibition |
| --- | --- |
| COc1ccc(-c2noc(CSCC(=O)Nc3cc(OC)c(OC)c(OC)c3)n2)cc1OC | 0.154% |
| CCOc1ccc(-c2cc3c(=O)n(CC(=O)NCc4ccc(C)cc4)ccn3n2)cc1 | 5.14% |
| CCc1ccc(C2CC(c3ccccc3)n3ncnc3N2)cc1 (centres undefined) | active: 42.1% |
| O=C(c1ccc(N2CCC3(CC2)OCCO3)c([N+](=O)[O-])c1)N1CCOCC1 | active: 31.2% |
| CN(C(=O)CCc1nc(-c2ccccc2F)no1)c1ccc(Cl)cc1 | 19.6% |
| O=S(=O)(c1ccc(OC(F)(F)F)cc1)N1CCC(c2nnnn2-c2ccc(F)cc2)CC1 | 1.91% |
| COc1cccc(NS(=O)(=O)c2ccc3c(c2)n(C)c(=O)n3C)c1 | 14.6% |
| COc1ccc(NC(=O)COCc2cc(-c3ccc4c(c3)OCO4)on2)cc1 | -1.65% |
| CN(C(=O)c1ccc2c(c1)N(Cc1cccc(Cl)c1)C(=O)c1ccccc1S2(=O)=O)C1CCCCC1 | 0.0671% |
| COCCNC(=O)c1cnc2sc(N3CCCCC3)nn2c1=O | 0.144% |
| Cc1ccc(Cn2c(SCc3ccc(C(=O)NC4CCCCC4)cc3)nc3ccncc32)cc1 | -7.47% |
| CSc1cccc(NC(=O)C2CCN(c3nc4ccccc4[nH]3)CC2)c1 | -7.87% |
| COc1ccc(Cl)c2sc(NC(=O)c3ccc(S(=O)(=O)N4CCOCC4)cc3)nc12 | -13.4% |
| CCc1ccc(NC(=O)Cn2c(=O)n(-c3ccc(Cl)c(Cl)c3)c(=O)c3c(C)c(C)sc32)cc1 | -3.52% |
| CC1CC(C)CN(CCCNC(=O)c2ccc3c(c2)NC(=O)CS3)C1 (centres undefined) | active: 47.7% |
| Cc1c(-c2nc(-c3ccccc3)no2)nnn1-c1ccc(F)c(Cl)c1 | 0.165% |
| Cc1ccc(CN2CCC(CNC(=O)c3cnn(-c4ccccc4Cl)c3C3CCN(C(=O)OC(C)(C)C)CC3)CC2)cc1 | -13.3% |
| COc1ccc(NC(=O)N(C2CCCCC2)C2CCN(C(C)C)CC2)c(OC)c1 | active: 49.9% |
| COc1cc(/C=C/c2nc(C#N)c(N3CCN(C)CC3)o2)cc(OC)c1OC | -4.62% |
| Cc1c(C(=O)N(Cc2ccccc2F)C2CCS(=O)(=O)C2)oc2ccccc12 (centres undefined) | 6.03% |
| CCOc1ccc(C(=O)c2cn(CC(=O)Nc3ccc(Cl)cc3)c3cc4c(cc3c2=O)OCO4)cc1 | 21.4% |
| COc1ccc(S(=O)(=O)NCC(c2cccs2)S(=O)(=O)c2ccccc2)cc1OC (centres undefined) | -19.9% |
| COc1ccc(-c2nnc(SCC(=O)Nc3cccc(C(F)(F)F)c3)s2)cc1 | 16.5% |
| CC(=O)N1CCc2cc(Br)cc(S(=O)(=O)CCC(=O)N3CCN(c4ccc(F)cc4)CC3)c21 | 10.1% |

| Compound | inhibition |
| --- | --- |
| COc1ccc(NC(=O)c2c(NCc3cccs3)sc3c2CCC(C)C3)c(OC)c1 (centres undefined) | -1.33% |
| CCOC(=O)N1CCC(NC(=O)CCCN2C(=O)CSc3ncccc32)CC1 | active: 31.7% |
| CCCCN(C)C(=O)c1cccc(OC2CCN(CC(C)(C)C)CC2)c1 | active: 66.8% |
| O=C(CSc1nnc(-c2ccccc2Cl)o1)N1CCCc2ccccc21 | -8.64% |
| Cc1oc(-c2ccc(Cl)cc2)nc1CN1CCCC(C(=O)NCCc2ccc(Cl)cc2)C1 (centres undefined) | -1.02% |
| COCCCNC(=O)C1CCN(Cc2cc3ccccc3n2Cc2ccccc2C)CC1 | 7.54% |
| CC1CCC(NC(=O)c2ccc(-n3cncn3)c([N+](=O)[O-])c2)CC1 (centres undefined) | active: 35.6% |
| Cc1ccc(S(=O)(=O)c2c(O)cc(C)c(NS(=O)(=O)c3ccc(Br)cc3)c2C)cc1 | 2.81% |
| COc1ccc(C)cc1NC(=O)c1ccc(NS(=O)(=O)c2c(C)noc2C)cc1 | 18.7% |
| CCC(C(=O)Nc1cccc(Cl)c1C)n1nc(C)c2sc3ccccc3c2c1=O (centres undefined) | -0.525% |
| COc1ccc(-c2noc(CN(C)S(=O)(=O)c3c(C)cc(C)cc3C)n2)cc1OC | -8.7% |
| CC(=O)N1c2ccccc2C(=O)C1N1CCN(c2ccccc2F)CC1 (centres undefined) | 2.55% |
| CCOC(=O)c1cnc2cc(C(F)(F)F)ccc2c1Nc1cc(C)ccc1OC | 3.98% |
| CCOC(=O)c1ccc(NC2=CC(c3ccc(OCC)cc3)N(c3ccc(C(=O)OCC)cc3)C2=O)cc1 (centres undefined) | 28.1% |
| CCc1cc(C(=O)OC)c(NC(=O)CC2SC(N)=NC2=O)s1 (centres undefined) | active: 31% |
| Cc1ccc(-c2nc(CCNC(=O)c3ccc(C)c(C)c3)cs2)cc1 | 23.6% |
| CC(C)(C)OC(=O)N1CCC(c2c(C(=O)NCc3ccccc3)cnn2-c2cccc(F)c2)CC1 | 11.2% |
| COc1ccccc1NC(=O)Cn1c(O)c(N=NC(=O)c2ccccc2O)c2ccccc21 | active: 55.1% |
| COc1ccccc1-c1nc2n(n1)C(c1ccccc1Cl)C(C(=O)Nc1cccnc1)=C(C)N2 (centres undefined) | 26.9% |
| CCOc1ccccc1NC(=O)CSc1nnc2[nH]c(=O)cc(C)n12 | -21.9% |
| Cc1cc(O)c(C(c2ccccc2)N2CCCCC2)c(=O)n1Cc1ccco1 (centres undefined) | 11.7% |
| CCCCn1cc(S(=O)(=O)c2ccc(C)cc2)c(=O)c2cc(F)c(N3CCCCC3)cc21 | -8.06% |
| O=C(COC(=O)/C=C/c1cccc(F)c1)NNC(=O)c1ccccc1 | active: 45.4% |
| COc1ccc(CCNC(=O)CCc2c(C)c3cc4c(C)c(C)oc4cc3oc2=O)cc1OC | -4.28% |

| Compound | inhibition |
| --- | --- |
| O=C(COC(=O)/C=C/c1ccccc1)Nc1ccccc1Br | active: 40.1% |
| O=C(Cn1ncn2c(cc3sccc32)c1=O)NCCc1ccccc1 | -5.36% |
| O=C(CSc1nc2ccccc2nc1Cc1ccc(Cl)cc1)Nc1ccc2c(c1)OCO2 | 4.49% |
| Cc1ccc2c(=O)cc(C(=O)Nc3ccc(S(=O)(=O)N(C)c4ccccc4)cc3)oc2c1C | 7.75% |
| Cc1ccc(-c2nc3c(c(SCc4ccc(Br)cc4)n2)Cc2c(CO)cnc(C)c2O3)cc1 | 0.448% |
| C=CC[C@@H]1C=C[C@H](O/N=C/[C@@H](NS(=O)(=O)c2ccc(C)cc2)[C@H](C)/C=C/CC(=O)OC)[C@@H](CO)O1 | active: 31% |
| COc1ccc(Nc2nc(C(=O)N3CCc4ccccc4C3)cs2)cc1 | active: 81.5% |
| O=C(CSc1nc2c([nH]c3ccccc32)c(=O)n1-c1ccc(Cl)cc1)N1CCc2ccccc21 | -20.2% |
| CSc1cccc(NC(=O)c2cnn(-c3ccc(F)cc3)c2-n2cccc2)c1 | 7.48% |
| Cc1cccc(-c2nc(CN3CCCC(C(=O)N4CCN(c5cc(Cl)ccc5C)CC4)C3)c(C)o2)c1 (centres undefined) | 3.19% |
| COc1ccccc1N1CCN(CCCOc2ccc(F)cc2)CC1 | active: 89.3% |
| Cc1cc(/C=C2\NC(=S)N(C)C2=O)ccc1N1CCCC1 | active: 41.7% |
| Cc1ccc(CSc2nc3cccnc3n2Cc2ccc(C(=O)NCc3ccco3)cc2)cc1 | 1.4% |
| Oc1ccc(Cl)cc1C1=Nc2ccccc2N=C(c2ccccc2)C1 | -8.89% |
| COc1ccc(OC)c(NC(=O)c2ccc(CN3CCc4ccccc4C3)cc2)c1 | active: 40.9% |
| CC(C)(C)C(=O)Nc1ccc(-c2nc3ccc(NC(=O)C(C)(C)C)cc3[nH]2)cc1 | 3.47% |
| Cc1ccc(S(=O)(=O)NCC2CCC(C(=O)NCCc3ccccc3)CC2)cc1 (centres undefined) | 3.49% |
| CCc1nc2ccc(C(=O)N3CCN(c4cc(Cl)ccc4C)CC3)cc2nc1CC | 13.3% |
| CC(=O)Nc1ccc(S(=O)(=O)NC2(C(F)(F)F)C(=O)Nc3c2c(=O)[nH]c(=O)n3-c2cccc(Cl)c2)cc1 (centres undefined) | -5.77% |
| CCOC(=O)c1cnc2cc(C(F)(F)F)ccc2c1Nc1ccc(F)cc1F | -9.36% |
| COC(=O)CC(NS(=O)(=O)c1cccs1)c1ccccc1Cl (centres undefined) | active: 34.7% |
| CCC(=O)N1CCc2cc(CNS(=O)(=O)c3cc(OC)ccc3OC)ccc21 | 6.18% |
